We go through 110 sequences from paper PMC6212790.

This is one part of the list. At the low end of the ranking, values are background and their order means little.

The target of this assay is T1, GST-Rok (full length) (UniProt O34857).
T1 sequence: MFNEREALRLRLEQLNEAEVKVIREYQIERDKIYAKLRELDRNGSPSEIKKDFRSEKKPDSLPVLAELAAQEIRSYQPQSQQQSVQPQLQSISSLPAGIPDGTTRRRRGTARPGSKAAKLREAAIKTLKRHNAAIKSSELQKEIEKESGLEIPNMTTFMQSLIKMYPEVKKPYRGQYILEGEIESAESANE
Nature of the assay: protein binding microarray.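 Further: rank score from −0.5 (least bound) to 0.5 (best bound).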 The settings on record: Rok is a gene silencer of Bacillus subtilis; high values mean tight binding; most listed sequences are background and not binding sites; double strand, one strand shown.
Take GATCCTAC: the binding signal stood at 0.25 E-score.
Consider TGCGTCAA, for which the binding signal is -0.114 E-score.
For ATTAAGTG, the binding signal came to 0.192 E-score.
With GACTCCAC the figure was -0.255 E-score.
With CCCCCATA the figure was -0.356 E-score; with CCCCACCG, -0.384 E-score; with CGTTCGCC, -0.106 E-score.
Sequence CGACAGGC registered a binding signal of -0.235 E-score.
The figure for ACAGGTTC is -0.168 E-score; for AGGTTTGG it is 0.00259 E-score; for CACGTAGC it is 0.0142 E-score.
With ATTTTTTG the figure was 0.127 E-score.
With CGAACGAA the figure was -0.211 E-score.
On to AGCCAATC, for which the binding signal was -0.0169 E-score.
Turning to CATAGCTC, the binding signal came to 0.00283 E-score.
With CGACGCCA the figure was -0.246 E-score; with AACAGCCT, -0.0437 E-score; with CTCGGGAA, -0.131 E-score.
The figure for AGCACCGC is -0.132 E-score.
With CTACCCAC the figure was 0.129 E-score; with ATGAATAC, 0.18 E-score; with CCTACCCC, -0.268 E-score.
AAGTACCC gave a binding signal of 0.0392 E-score.
With ATTGCGAC the figure was 0.129 E-score; with TTATATAA, 0.399 E-score.
GCGACTCA displayed a binding signal of -0.167 E-score.
CCACAAGC yielded a binding signal of -0.0749 E-score.
In turn, GACGCGGA yielded a binding signal of -0.213 E-score.
With GTACCAAA the figure was 0.104 E-score; with AGCGGCCG, -0.154 E-score; with CGATATCA, 0.134 E-score.
The figure for GCGTCCGA is -0.16 E-score; for AATTGGCA it is -0.0881 E-score.
With GACGTCCA the figure was -0.114 E-score; with GATGATGA, 0.0824 E-score.
With TAAATTCA, the binding signal is 0.217 E-score.
Turning to GCGTCTTA, the binding signal was -0.0703 E-score.
Turning to GAAAGCAA, the binding signal amounted to 0.0112 E-score.
The figure for CTTCTCAA is -0.0416 E-score; for AGGTCGTC it is -0.208 E-score; for AAGTCTGG it is -0.0136 E-score.
The figure for CCTTTTAA is -0.0612 E-score.
AGACGCAA came in with a binding signal of -0.089 E-score.
The figure for CATGCAAG is -0.088 E-score.
With CCATCCCG the figure was -0.179 E-score; with CATGCATA, 0.215 E-score; with GCGCTCTA, 0.0397 E-score.
With ATGCGGGC the figure was -0.169 E-score.
The sequence GTAATTAC yielded a binding signal of 0.421 E-score.
Consider ATCTAGGC, for which the binding signal amounted to 0.0415 E-score.
GATACCCC came in with a binding signal of -0.235 E-score.
The figure for ATTGCAGA is -0.0117 E-score; for GCGCCACC it is -0.329 E-score.
AAGAGTAG gave a binding signal of 0.183 E-score.
The sequence ACTCGCTA showed a binding signal of -0.0121 E-score.
In the case of AAGTCGGA, the binding signal was -0.198 E-score.
The figure for CTTCATCA is -0.0921 E-score; for CTCGCGAG it is -0.0252 E-score.
The figure for GAATGAGC is -0.114 E-score; for ACTATCCT it is 0.0634 E-score.
AATCAGCT showed a binding signal of -0.0409 E-score.
With CCCCGCGG the figure was -0.348 E-score.
With ACAGTCAT the figure was 0.00499 E-score; with CTCGTTGC, -0.215 E-score; with AGAAGTGG, 0.131 E-score.
The figure for ATCCTTCA is -0.0679 E-score.
In turn, GGATAACC returned a binding signal of -0.14 E-score.
ATCCGGAG yielded a binding signal of -0.135 E-score.
For ACCTTAGG, the binding signal was -0.124 E-score.
With AAGACAAC, the binding signal is -0.1 E-score.
CATACGTC gave a binding signal of 0.119 E-score.
For TAGAGTGA, the binding signal was -0.102 E-score.
Consider CAGAGTCC, for which the binding signal is -0.297 E-score.
ACCGGATA registered a binding signal of 0.0515 E-score.
Turning to AAGCACAT, the binding signal worked out at 0.0584 E-score.
TGTACTAA registered a binding signal of 0.0689 E-score.
With CCTGCTGC the figure was -0.321 E-score.
ATTCAGTG returned a binding signal of 0.0704 E-score.
Sequence CGGTCAAG returned a binding signal of -0.264 E-score.
With CCCCATTC the figure was -0.327 E-score; with CGCGAAAC, -0.0106 E-score; with AAACCGGA, 0.0308 E-score.
With AAATAGAG the figure was 0.0358 E-score; with ATGTCTTG, -0.0447 E-score.
In the case of ACTGACTC, the binding signal is -0.022 E-score.
ATCATAAG came in with a binding signal of 0.0119 E-score.
For CGCTACTC, the binding signal is -0.0293 E-score.
CCTATCAG showed a binding signal of 0.0668 E-score.
The figure for CAGATCCA is -0.0843 E-score.
GAGATGCA: the binding signal is -0.163 E-score.
Consider TAGCGCAA, for which the binding signal amounted to 0.203 E-score.
Take CATGGGAC: the binding signal was -0.214 E-score.
In turn, AACAATTC yielded a binding signal of 0.273 E-score.
The figure for ACATCGGG is -0.192 E-score; for ATACGTCC it is 0.0529 E-score.
Take AAGTCGCC: the binding signal was -0.0852 E-score.
The figure for AAGTTGTG is 0.0359 E-score; for CTAACGAG it is 0.0146 E-score.
The figure for ATTACAGA is 0.291 E-score; for CCCTCGCA it is -0.191 E-score; for GCCGCCGA it is -0.206 E-score.
With TCTAAGCA the figure was 0.0166 E-score; with CCTATATA, 0.123 E-score.
CATGTAAA displayed a binding signal of 0.233 E-score.
ATCAGTAA returned a binding signal of 0.231 E-score.
Take AAGCTCGA: the binding signal was -0.0986 E-score.
The figure for ACTAGCCT is 0.0387 E-score; for ATGCAGTC it is -0.0871 E-score; for GGGGTCTA it is -0.358 E-score.
The figure for AGGGGTCC is -0.388 E-score.
